The values that follow come from the supplement of paper PMC11741623.

To fix the notation:
B1: SUSD4, Q5VX71 (protein)
chain: MYHGMNPSNGDGFLEQQQQQQQPQSPQRLLAVILWFQLALCFGPAQLTGGFDDLQVCADPGIPENGFRTPSGGVFFEGSVARFHCQDGFKLKGATKRLCLKHFNGTLGWIPSDNSICVQEDCRIPQIEDAEIHNKTYRHGEKLIITCHEGFKIRYPDLHNMVSLCRDDGTWNNLPICQGCLRPLASSNGYVNISELQTSFPVGTVISYRCFPGFKLDGSAYLECLQNLIWSSSPPRCLALEVCPLPPMVSHGDFVCHPRPCERYNHGTVVEFYCDPGYSLTSDYKYITCQYGEWFPSYQVYCIKSEQTWPSTHETLLTTWKIVAFTATSVLLVLLLVILARMFQTKFKAHFPPRGPPRSSSSDPDFVVVDGVPVMLPSYDEAVSGGLSALGPGYMASVGQGCPLPVDDQSPPAYPGSGDTDTGPGESETCDSVSGSSELLQSLYSPPRCQESTHPASDNPDIIASTAEEVASTSPGIDIADEIPLMEEDP
B2: FGF10, O15520 (protein)
chain: MWKWILTHCASAFPHLPGCCCCCFLLLFLVSSVPVTCQALGQDMVSPEATNSSSSSFSSPSSAGRHVRSYNHLQGDVRWRKLFSFTKYFLKIEKNGKVSGTKKENCPYSILEITSVEIGVVAVKAINSNYYLAMNKKGKLYGSKEFNNDCKLKERIEENGYNTYASFNWQHNGRQMYVALNGKGAPRRGQKTRRKNTSAHFLPMVVHS
B3: OTUD3, Q5T2D3 (protein)
chain: MSRKQAAKSRPGSGSRKAEAERKRDERAARRALAKERRNRPESGGGGGCEEEFVSFANQLQALGLKLREVPGDGNCLFRALGDQLEGHSRNHLKHRQETVDYMIKQREDFEPFVEDDIPFEKHVASLAKPGTFAGNDAIVAFARNHQLNVVIHQLNAPLWQIRGTEKSSVRELHIAYRYGEHYDSVRRINDNSEAPAHLQTDFQMLHQDESNKREKIKTKGMDSEDDLRDEVEDAVQKVCNATGCSDFNLIVQNLEAENYNIESAIIAVLRMNQGKRNNAEENLEPSGRVLKQCGPLWEEGGSGARIFGNQGLNEGRTENNKAQASPSEENKANKNQLAKVTNKQRREQQWMEKKKRQEERHRHKALESRGSHRDNNRSEAEANTQVTLVKTFAALNI
B4: KIAA1143, Q96AT1 (protein)
chain: MSKRNQVSYVRPAEPAFLARFKERVGYREGPTVETKRIQPQPPDEDGDHSDKEDEQPQVVVLKKGDLSVEEVMKIKAEIKAAKADEEPTPADGRIIYRKPVKHPSDEKYSGLTASSKKKKPNEDEVNQDSVKKNSQKQIKNSSLLSFDNEDENE

The list shows a part of the results. Interaction screen of human proteins with wild-type SARS-CoV-2 proteins by split-DHFR complementation in yeast, 1 µg/mL methotrexate. Value = fitness of the pair (three or more lineages) minus that of the viral protein without a human partner, on a scale set by negative (0) and fused positive (1) controls, mean of up to three cultures; higher = more likely to interact. Active = false discovery rate below 0.05 (one-sided t-test) in at least one culture. Nearly all pairs are not hits, and differences among them are mostly noise (correlation between cultures about 0.3); most hits were seen in one culture only. Human sequences are the Swiss-Prot entries looked up by gene name; the clone may be another isoform. NSP2 values were corrected by the authors for a growth advantage. Listed are human proteins with a hit and a random twelfth of the others.

For one assay, the target named is SARS-CoV-2 E. Put plainly: yeast fitness gain over the viral ORF with no human partner (scaled fitness); higher = more likely to interact. The protocol:
(§1)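 Split mouse DHFR complementation in pooled diploid yeast: human ORFeome clones carry one fragment and viral ORFs the other; barcoded lineages compete in 1 µg/mL methotrexate and fitness is read by barcode sequencing in up to three cultures.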
B1: the yeast fitness gain was inactive: 0.0553.

As to B2, the yeast fitness gain was inactive: 0.000838.

Regarding B3, the yeast fitness gain is inactive: -0.0532.

Consider B4, for which the yeast fitness gain was inactive: -0.0202.

The target in the next assay is SARS-CoV-2 M. The assay is described as above. The protocol: as §1
B1: the yeast fitness gain is inactive: -0.0859.

On to B2, for which the yeast fitness gain was inactive: -0.0388.

Consider B3, for which the yeast fitness gain is inactive: 0.0734.

Regarding B4, the yeast fitness gain was inactive: 0.0316.

The next assay addresses SARS-CoV-2 NSP1. The description is as above. The protocol: as §1
Turning to B1, the yeast fitness gain is inactive: 0.0144.

Consider B2, for which the yeast fitness gain is inactive: 0.0218.

On to B3, for which the yeast fitness gain is inactive: 0.0159.

In a further assay the target is SARS-CoV-2 NSP10. Described as above. The protocol:
as §1
Take B1: the yeast fitness gain is inactive: 0.00821.

For the molecule B2, the yeast fitness gain was inactive: -0.0309.

Take B3: the yeast fitness gain was inactive: -0.01.

A further assay has as its target SARS-CoV-2 NSP12. Described as above. The protocol: as §1
B1: the yeast fitness gain was inactive: 0.0243.

With B2, the yeast fitness gain was inactive: 0.0761.

Take B3: the yeast fitness gain was inactive: -0.00517.

The next assay concerns the target SARS-CoV-2 NSP13. The description is as above. The protocol:
as §1
Consider B1, for which the yeast fitness gain was inactive: -0.0156.

Take B2: the yeast fitness gain was inactive: -0.00699.

As to B3, the yeast fitness gain is inactive: -0.00552.

In a further assay the target is SARS-CoV-2 NSP14. The description is as above. The protocol:
as §1
For the molecule B1, the yeast fitness gain is inactive: 0.0883.

For the molecule B2, the yeast fitness gain is inactive: -0.282.

With B3, the yeast fitness gain is inactive: 0.0954.

With B4, the yeast fitness gain is inactive: -0.26.

The target in a further assay is SARS-CoV-2 NSP15. The description is as above. The protocol: as §1
Take B1: the yeast fitness gain was inactive: -0.0536.

For B2, the yeast fitness gain is inactive: 0.0155.

Turning to B3, the yeast fitness gain was inactive: 0.0106.

As to B4, the yeast fitness gain was inactive: -0.011.

The target in the next assay is SARS-CoV-2 NSP2. Described as above. The protocol:
as §1
In the case of B1, the yeast fitness gain is inactive: -0.128.

B2: the yeast fitness gain is inactive: -0.174.

With B3, the yeast fitness gain was inactive: -0.0592.

Another assay concerns the target SARS-CoV-2 NSP4. The assay is described as above. The protocol: as §1
In the case of B1, the yeast fitness gain was inactive: 0.0397.

B2: the yeast fitness gain is inactive: -0.0106.

For B3, the yeast fitness gain is inactive: -0.397.

For the molecule B4, the yeast fitness gain is inactive: 0.0701.

The next assay concerns the target SARS-CoV-2 NSP5. The description is as above. The protocol: as §1
As for B1, the yeast fitness gain was inactive: -0.01.

B2: the yeast fitness gain was inactive: -0.00909.

As to B3, the yeast fitness gain was inactive: -0.0198.

Regarding B4, the yeast fitness gain was inactive: -0.00507.

The target in the next assay is SARS-CoV-2 NSP6. The description is as above. The protocol:
as §1
Turning to B1, the yeast fitness gain is inactive: 0.0286.

Regarding B2, the yeast fitness gain was inactive: 0.015.

Regarding B3, the yeast fitness gain was inactive: 0.0103.

As to B4, the yeast fitness gain was inactive: 0.0278.

A further assay deals with SARS-CoV-2 NSP7. Described as above. The protocol: as §1
For the molecule B1, the yeast fitness gain was inactive: 0.0345.

In the case of B2, the yeast fitness gain was inactive: 0.0783.

B3: the yeast fitness gain was inactive: 0.00892.

For B4, the yeast fitness gain is inactive: -0.273.

The target of a further assay is SARS-CoV-2 NSP8. Described as above. The protocol: as §1
With B1, the yeast fitness gain is inactive: -0.00283.

Take B2: the yeast fitness gain is inactive: 0.0433.

Take B3: the yeast fitness gain was inactive: 0.00115.

As for B4, the yeast fitness gain was inactive: 0.0164.

A further assay deals with SARS-CoV-2 NSP9. The description is as above. The protocol: as §1
Regarding B1, the yeast fitness gain was inactive: -0.165.

On to B2, for which the yeast fitness gain was inactive: -0.105.

Turning to B3, the yeast fitness gain was inactive: 0.15.

For another assay, the target named is SARS-CoV-2 ORF10. The description is as above. The protocol: as §1
For the molecule B1, the yeast fitness gain is inactive: 0.0368.

B2: the yeast fitness gain is inactive: -0.00547.

Consider B3, for which the yeast fitness gain is inactive: 0.00511.

The target of a further assay is SARS-CoV-2 ORF3A. Described as above. The protocol: as §1
As for B1, the yeast fitness gain is inactive: -0.0375.

On to B2, for which the yeast fitness gain was inactive: 0.0134.

As to B3, the yeast fitness gain was inactive: -0.0871.

On to B4, for which the yeast fitness gain is inactive: -0.0891.

The target of another assay is SARS-CoV-2 ORF3B. The assay is described as above. The protocol: as §1
As for B1, the yeast fitness gain is inactive: 0.02.

With B2, the yeast fitness gain is inactive: -0.0187.

As for B3, the yeast fitness gain is inactive: -0.0158.

On to B4, for which the yeast fitness gain was inactive: -0.0628.

The target of a further assay is SARS-CoV-2 ORF6. Described as above. The protocol: as §1
For B1, the yeast fitness gain was inactive: 0.00138.

B2: the yeast fitness gain is inactive: 0.00541.

Consider B3, for which the yeast fitness gain is inactive: 0.0291.

The target in a further assay is SARS-CoV-2 ORF7A. The description is as above. The protocol: as §1
B1: the yeast fitness gain was inactive: 0.00878.

With B2, the yeast fitness gain was inactive: 0.0198.

With B3, the yeast fitness gain is inactive: 0.0141.

Turning to B4, the yeast fitness gain was inactive: -0.114.

A further assay has as its target SARS-CoV-2 ORF7B. The description is as above. The protocol:
as §1
As for B1, the yeast fitness gain was inactive: 0.0392.

For B2, the yeast fitness gain is inactive: 0.0393.

With B3, the yeast fitness gain was inactive: -0.0486.

The next assay has as its target SARS-CoV-2 ORF8. Described as above. The protocol: as §1
Take B1: the yeast fitness gain was inactive: -0.00774.

With B2, the yeast fitness gain was inactive: 0.0148.

Regarding B3, the yeast fitness gain was inactive: -0.0201.

The target of the next assay is SARS-CoV-2 ORF9B. The description is as above. The protocol:
as §1
As to B1, the yeast fitness gain was inactive: 0.01.

As for B2, the yeast fitness gain is inactive: 0.0261.

B3: the yeast fitness gain was inactive: 0.00714.

The next assay addresses SARS-CoV-2 ORF9Bwu (the 73-codon ORF). The assay is described as above. The protocol:
as §1
Take B1: the yeast fitness gain was inactive: 0.0829.

With B2, the yeast fitness gain is inactive: -0.0362.

For B3, the yeast fitness gain is inactive: 0.00182.

Take B4: the yeast fitness gain is inactive: 0.0643.

The target of the next assay is SARS-CoV-2 S. Described as above. The protocol: as §1
In the case of B1, the yeast fitness gain was inactive: 0.0219.

For B2, the yeast fitness gain was inactive: 0.0111.

Consider B3, for which the yeast fitness gain is inactive: 0.0023.

Regarding B4, the yeast fitness gain is inactive: -0.0623.

The target in another assay is SARS-CoV-2 N. The assay is described as above. The protocol: as §1
For the molecule B2, the yeast fitness gain was inactive: 0.0586.

Turning to B3, the yeast fitness gain was inactive: -0.0529.

With B4, the yeast fitness gain was inactive: -0.0672.

In a further assay the target is SARS-CoV-2 NSP16. The description is as above. The protocol:
as §1
Regarding B2, the yeast fitness gain was inactive: -0.0452.

For B3, the yeast fitness gain was inactive: 0.00766.

Take B4: the yeast fitness gain was inactive: -0.041.
